# About 220 (0.56%) of roughly 39,000 compounds showed activity. The list shows a part of the results.
# System: Escherichia coli K-12 BW25113
# Experiment: relative growth (OD600 normalised to plate interquartile mean) (fraction); higher = less growth inhibition, active = 0.2 or less
# Details: 50 µM; LB; incubation time: overnight (16-24 h)
# 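Also: static incubation at 37 °C against the wild-type strain, values averaged over two biological replicates.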
row,SMILES,relative growth
1,Cc1noc(C)c1NC(=O)Nc1ccc2c(c1)C(=O)N([C@@H](C)CO)C[C@@H](C)[C@H](CN(C)Cc1ccccc1)OCCCC[C@H](C)O2,inactive: 0.999
2,CS(=O)(=O)Nc1ccc2c(c1)[C@H]1C[C@@H](CC(=O)NCC3CC3)O[C@H](CO)[C@H]1O2,inactive: 1.04
3,O=C(C[C@@H]1CC[C@H]2[C@@H](COC[C@@H](O)CN2C(=O)c2ccccc2)O1)NCCCN1CCOCC1,inactive: 0.988
4,C[C@H](CO)N1C[C@H](C)[C@@H](CN(C)C(=O)c2cc(Cl)cc(Cl)c2)OCc2ccccc2-c2c(n(C)c3ccccc23)C1=O,inactive: 0.933
5,C[C@@H]1CN([C@H](C)CO)C(=O)c2cc(NS(C)(=O)=O)ccc2O[C@H]1CN(C)Cc1ccc(C(F)(F)F)cc1,inactive: 0.994
6,O=C(CN1CCOCC1)N[C@H]1CC[C@H](CCn2cc(C3CCCC3)nn2)O[C@H]1CO,inactive: 0.973
7,Cc1nc2c(c(C)nn2-c2ccccc2)c(C)c1CN,inactive: 0.99
8,CCS(=O)(=O)N1C[C@]2(CN(C2)C(=O)Nc2c(noc2C)C)c2c(n(c3cc(ccc23)OC)C)[C@@H]1CO,inactive: 0.982
9,CCN(CC)c1ccc(N2CC=C[C@@]34O[C@@H]5/C=C\CCCOC(=O)[C@@H]5[C@H]3C(=O)N(CCO)[C@@H]4C2=O)cc1,inactive: 0.979
10,CN(C)S(=O)(=O)c1ccc(C#N)cc1,inactive: 0.999
11,Cc1ccc(S(=O)(=O)N(C)C[C@@H]2Oc3ccc(NC(=O)CCN4CCOCC4)cc3C(=O)N([C@H](C)CO)C[C@@H]2C)cc1,inactive: 1
12,C[C@@H]1CN([C@@H](C)CO)C(=O)c2cccc(NS(=O)(=O)c3ccc(F)cc3)c2O[C@H]1CN(C)Cc1ccc(Cl)c(Cl)c1,inactive: 0.996
13,COc1ccc(NC(=O)N(C)C[C@@H]2Oc3c(NS(=O)(=O)c4c(C)noc4C)cccc3C(=O)N([C@H](C)CO)C[C@@H]2C)cc1,inactive: 0.993
14,COCC(=O)N1CC(=O)N2[C@H](C1)[C@H](c1ccc(C#Cc3cccnc3)cc1)[C@@H]2CO,inactive: 0.99
15,O=c1ccc(=O)n(CNc2nccs2)[nH]1,inactive: 0.988
16,Cc1noc(C)c1S(=O)(=O)N(C)C[C@@H]1Oc2c(NC(=O)c3cnccn3)cccc2C(=O)N([C@H](C)CO)C[C@@H]1C,inactive: 0.981
17,C[C@H]1CN([C@@H](C)CO)C(=O)c2cccc(NS(=O)(=O)c3cn(C)cn3)c2O[C@@H]1CN(C)S(=O)(=O)c1ccc(Cl)cc1,inactive: 1
18,C[C@@H]1CN([C@@H](C)CO)C(=O)c2c(c3ccccc3n2C)-c2ccccc2CO[C@H]1CN(C)Cc1ccc(-c2ccccc2)cc1,inactive: 1.02
19,C[C@H](CO)N1C[C@H](C)[C@H](CN(C)CC2CCOCC2)Oc2cc(C#Cc3cccnc3)ccc2S1(=O)=O,inactive: 0.989
20,C[C@H](CO)N1C[C@H](C)[C@@H](CN(C)S(=O)(=O)c2cn(C)cn2)Oc2ccc(NC(=O)c3ccncc3)cc2C1=O,inactive: 0.993

row,SMILES,relative growth
1,Cc1noc(C)c1NC(=O)Nc1ccc2c(c1)C(=O)N([C@H](C)CO)C[C@@H](C)[C@@H](CN(C)Cc1ccc3c(c1)OCO3)OCCCC[C@H](C)O2,inactive: 0.964
2,Cc1noc(C)c1NC(=O)N(C)C[C@@H]1Oc2c(NS(=O)(=O)c3c(C)noc3C)cccc2C(=O)N([C@H](C)CO)C[C@@H]1C,inactive: 0.99
3,O=C(C[C@H]1C=C[C@@H](NC(=O)CN2CCOCC2)[C@@H](CO)O1)NCc1cccc(F)c1,inactive: 0.897
4,Cc1cc(OCCCS(C)(=O)=O)cc(C)c1-c1cccc(COc2ccc3c(c2)OC[C@H]3CC(=O)O)c1,inactive: 1.02
5,COc1ccc(CN(C)C[C@@H]2OCCCC[C@H](C)Oc3ccc(NS(=O)(=O)c4ccc(Cl)cc4)cc3C(=O)N([C@H](C)CO)C[C@@H]2C)cc1,inactive: 1
6,CCC(=O)Nc1ccc2c(c1)C(=O)N(C)C[C@@H](OC)[C@H](C)CN(C(=O)CN1CCOCC1)[C@H](C)CO2,inactive: 1.02
7,COc1ccc(S(=O)(=O)N(C)C[C@@H]2Oc3c(NC(=O)c4ccncc4)cccc3C(=O)N([C@@H](C)CO)C[C@H]2C)cc1,inactive: 1
8,C[C@@H]1CN([C@H](C)CO)C(=O)c2cccc(NC(=O)CCCCCC(=O)Nc3ccccc3N)c2O[C@H]1CN(C)Cc1ccc(-c2ccccc2)cc1,inactive: 1
9,COCCNC(=O)C[C@H]1C[C@H]2c3cc(NS(C)(=O)=O)ccc3O[C@H]2[C@@H](CO)O1,inactive: 1.03
10,Cc1noc(C)c1NC(=O)Nc1ccc2c(c1)C(=O)N([C@H](C)CO)C[C@H](C)[C@@H](CN(C)C(=O)c1ccccc1)OCCCC[C@@H](C)O2,inactive: 0.996
11,C[C@@H]1CN([C@@H](C)CO)C(=O)c2cc(NC(=O)Cn3cnnn3)ccc2O[C@H]1CN(C)S(=O)(=O)c1cn(C)cn1,inactive: 1.01
12,C[C@H]1CN([C@@H](C)CO)C(=O)Cc2cc(NS(=O)(=O)c3ccc(F)cc3)ccc2O[C@@H]1CN(C)Cc1ccc(Cl)c(Cl)c1,inactive: 0.978
13,C[C@H]1CN([C@@H](C)CO)C(=O)c2cccc(NC(=O)c3ccncc3)c2O[C@H]1CN(C)Cc1ccncc1,inactive: 0.988
14,NCCNC(=O)c1ccc(Cl)cn1,inactive: 0.995
15,C[C@@H]1CCCCO[C@H](CN(C)Cc2ccncc2)[C@H](C)CN([C@H](C)CO)C(=O)c2cc(NS(=O)(=O)c3ccc(Cl)cc3)ccc2O1,inactive: 0.992
16,C[C@H]1CN([C@@H](C)CO)C(=O)Cc2cc(NS(C)(=O)=O)ccc2O[C@H]1CN(C)C(=O)Nc1ccc2c(c1)OCO2,inactive: 0.986
17,COc1ccccc1C(=O)Nc1ccc2c(c1)C(=O)N(C)[C@@H]1CC[C@@H](CC(=O)NCCc3ccncc3)O[C@@H]1CO2,inactive: 0.997
18,CN(C)CC(=O)N[C@H]1C=C[C@H](CC(=O)NCCN2CCCCC2)O[C@@H]1CO,inactive: 0.974
19,C[C@H]1CN([C@@H](C)CO)C(=O)c2cc(NC(=O)C3CC3)ccc2O[C@H]1CN(C)C(=O)Nc1ccc2c(c1)OCO2,inactive: 1
20,Cc1ccc(S(=O)(=O)Nc2ccc3c(c2)C(=O)N([C@@H](C)CO)C[C@H](C)[C@H](CN(C)C(=O)Nc2ccccc2)OCCCC[C@@H](C)O3)cc1,inactive: 0.984

row,SMILES,relative growth
1,C[C@@H]1CN([C@H](C)CO)C(=O)c2cc(-c3ccc(C(=O)N(C)C)cc3)cnc2O[C@H]1CN(C)C(=O)CN(C)C,inactive: 1
2,COc1ccc(S(=O)(=O)N2C[C@@H](O)COC[C@@H]3O[C@H](CC(=O)NCCCN(C)C)CC[C@H]32)cc1,inactive: 0.929
3,CC(C)NC(=O)N1CC[C@@H]2N(S(C)(=O)=O)CC[C@@]2(C(=O)N2CCOCC2)CC1,inactive: 0.993
4,Cc1noc(C)c1NC(=O)N(C)C[C@H]1OCCCC[C@H](C)Oc2ccc(NS(=O)(=O)c3ccc(F)cc3)cc2C(=O)N([C@@H](C)CO)C[C@H]1C,inactive: 1
5,O=C(C[C@H]1CC[C@H]2[C@@H](COC[C@@H](O)CN2C(=O)c2cnccn2)O1)N1CCN(c2ccccc2)CC1,inactive: 1.03
6,C[C@H]1CN([C@@H](C)CO)C(=O)c2cccc(NS(=O)(=O)c3cccs3)c2O[C@@H]1CN(C)C(=O)Nc1cccc2ccccc12,inactive: 0.984
7,COc1ccc(NC(=O)Nc2ccc3c(c2)C(=O)N([C@@H](C)CO)C[C@H](C)[C@@H](CN(C)S(=O)(=O)c2c(C)noc2C)OCCCC[C@H](C)O3)cc1,inactive: 1.02
8,COc1ccc(S(=O)(=O)Nc2cccc3c2O[C@@H](CN(C)Cc2ccc(Oc4ccccc4)cc2)[C@@H](C)CN([C@H](C)CO)C3=O)cc1,inactive: 0.981
9,Cc1cc(C2(c3cc(C)c(N)c(C)c3)CCCCC2)cc(C)c1N,inactive: 1.03
10,C[C@H](CO)N1C[C@H](C)[C@@H](CN(C)Cc2ccncc2)OCCCC[C@H](C)Oc2ccc(NC(=O)c3ccccc3)cc2C1=O,inactive: 1
11,Cc1noc(C)c1S(=O)(=O)N(C)C[C@@H]1Oc2ccc(NC(=O)Cc3cn(C)c4ccccc34)cc2CC(=O)N([C@@H](C)CO)C[C@H]1C,inactive: 0.986
12,Cc1nc(-c2ccc(Cl)cc2)c(-c2ccccc2)s1,inactive: 0.946
13,C[C@@H]1CN([C@H](C)CO)C(=O)c2cc(NC(=O)C3CCCCC3)ccc2O[C@@H](C)CCCCO[C@@H]1CN(C)C(=O)c1ccncc1,inactive: 0.984
14,S=C(NCCCc1cnc[nH]1)NCCCN(Cc1ccc(Cl)c(Cl)c1)c1ccc(Br)cn1,inactive: 0.823
15,CC(C)C[C@H](NC(=O)CNC(=O)c1cc(Cl)ccc1Cl)B1OC(=O)C[C@](CC(=O)O)(C(=O)O)O1,inactive: 0.879
16,C[C@@H]1CCCCO[C@H](CN(C)C(=O)Nc2ccc(C(F)(F)F)cc2)[C@@H](C)CN([C@H](C)CO)C(=O)c2cc(NC(=O)c3ccccc3)ccc2O1,inactive: 1.02
17,COc1ccc2c3c(n(c2c1)C)[C@@H](CO)N(C[C@]13CCN(CC1)CC1CCOCC1)C(=O)Cc1ccccn1,inactive: 1.01
18,CC(C)NC(=O)N(C)C[C@H]1Oc2ccc(NC(=O)Nc3ccc4c(c3)OCO4)cc2C(=O)N([C@H](C)CO)C[C@@H]1C,inactive: 0.981
19,O=C(NCc1ccccc1)[C@@H](c1ccco1)N(Cc1ccc(Br)cc1)C(=O)Cc1ccccc1,inactive: 0.977
20,C[C@H](CO)N1C[C@H](C)[C@H](CN(C)Cc2ccc(C(=O)Nc3ccccc3N)cc2)Oc2c(NC(=O)Nc3cccc4ccccc34)cccc2C1=O,inactive: 0.977

# Source: the supplement of paper PMC9446081
